In publication PMC12820563, “FoxP3 forms a head-to-head dimer in vivo and stabilizes its multimerization on adjacent microsatellites”:
This is one part of the list.

Each sequence was assayed against T1, MBP-FoxP1dN (Mus musculus, UniProt P58462 326-579) (assay: PD-seq (MBP pull-down with sequencing); 20 mM Tris-HCl pH 7.5, 100 mM NaCl, 1.5 mM MgCl2, 0.4 uM protein, 0.1 uM dsDNA library, 30 min, room temperature, amylose pull-down; high values mean tight binding). Details: protein: recombinant; tags: His6-MBP; chain copies: 2; dsDNA, one strand shown.
T1 sequence: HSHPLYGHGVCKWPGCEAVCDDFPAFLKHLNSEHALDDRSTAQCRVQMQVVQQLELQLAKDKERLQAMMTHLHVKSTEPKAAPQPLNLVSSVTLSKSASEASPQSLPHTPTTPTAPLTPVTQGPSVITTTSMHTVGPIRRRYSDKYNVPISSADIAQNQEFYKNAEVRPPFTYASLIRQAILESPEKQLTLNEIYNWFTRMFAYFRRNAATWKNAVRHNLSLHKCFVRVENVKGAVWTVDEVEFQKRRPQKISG
How it was run: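 Protein and DNA were mixed at 0.4 µM and 0.1 µM and held for 30 min at room temperature in Tris pH 7.5 buffer with NaCl and MgCl2; the protein was a His6-MBP-tagged, N-terminally truncated mouse FoxP3 or FoxP1 fragment from E. coli, and the DNA a Klenow-filled double-stranded degenerate library. Amylose resin captured the complexes, which were washed three times. Binding is read as reads-per-million enrichment of pull-down versus input after Illumina sequencing, with replicates pooled.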
For “GATGATTGTTCTCCCAGCTGATGAATTGCTGCGGTCGAGTAAACAAATTTTCCTAATCTTTCTGTTCAAGCGCCATCTAC”, the binding signal was 0.932 RPM ratio (pull-down/input). In the case of “GATGATTGTTCTCCCAGCTGATGAATTTCGCCAGTCGAGTAAACAAATTTTCCTAATCTTTCTGTTCAAGCGCCATCTAC”, the binding signal is reported as 0.805 RPM ratio (pull-down/input). “GATGATTGTTCTCCCAGCTGATGAATTTCCCGCTTCGAGTAAACAAATTTTCCTAATCTTTCTGTTCAAGCGCCATCTAC” was tested, and the binding signal was 0.84 RPM ratio (pull-down/input). “GATGATTGTTCTCCCAGCTGATGAATTTTCCTGCTCGAGTAAACAAATTTTCCTAATCTTTCTGTTCAAGCGCCATCTAC” was tested, and the binding signal was 0.865 RPM ratio (pull-down/input). In the case of “GATGATTGTTCTCCCAGCTGATGAATTGATTGATTCGAGTAAACAAATTTTCCTAATCTTTCTGTTCAAGCGCCATCTAC”, the binding signal is reported as 1.08 RPM ratio (pull-down/input). For “GATGATTGTTCTCCCAGCTGATGAATTTAGACGCTCGAGTAAACAAATTTTCCTAATCTTTCTGTTCAAGCGCCATCTAC”, the binding signal was 1.05 RPM ratio (pull-down/input). For “GATGATTGTTCTCCCAGCTGATGAATTTTCGGCTTCGAGTAAACAAATTTTCCTAATCTTTCTGTTCAAGCGCCATCTAC”, the binding signal was 0.785 RPM ratio (pull-down/input). For “GATGATTGTTCTCCCAGCTGATGAATTCCTCCGATCGAGTAAACAAATTTTCCTAATCTTTCTGTTCAAGCGCCATCTAC”, the binding signal was 0.793 RPM ratio (pull-down/input). For “GATGATTGTTCTCCCAGCTGATGAATTATTGCTTTCGAGTAAACAAATTTTCCTAATCTTTCTGTTCAAGCGCCATCTAC”, the binding signal was 1.74 RPM ratio (pull-down/input). For “GATGATTGTTCTCCCAGCTGATGAATTCAAACGTTCGAGTAAACAAATTTTCCTAATCTTTCTGTTCAAGCGCCATCTAC”, the binding signal was 0.905 RPM ratio (pull-down/input). “GATGATTGTTCTCCCAGCTGATGAATTGACTGGATCGAGTAAACAAATTTTCCTAATCTTTCTGTTCAAGCGCCATCTAC” was tested, and the binding signal was 0.882 RPM ratio (pull-down/input). In the case of “GATGATTGTTCTCCCAGCTGATGAATTGTGGACCTCGAGTAAACAAATTTTCCTAATCTTTCTGTTCAAGCGCCATCTAC”, the binding signal is reported as 0.924 RPM ratio (pull-down/input). In the case of “GATGATTGTTCTCCCAGCTGATGAATTTTATCTATCGAGTAAACAAATTTTCCTAATCTTTCTGTTCAAGCGCCATCTAC”, the binding signal is reported as 0.92 RPM ratio (pull-down/input). “GATGATTGTTCTCCCAGCTGATGAATTGGTCAACTCGAGTAAACAAATTTTCCTAATCTTTCTGTTCAAGCGCCATCTAC” was tested, and the binding signal was 1.04 RPM ratio (pull-down/input). With “GATGATTGTTCTCCCAGCTGATGAATTCGTTTTCTCGAGTAAACAAATTTTCCTAATCTTTCTGTTCAAGCGCCATCTAC” the binding signal was 0.901 RPM ratio (pull-down/input). “GATGATTGTTCTCCCAGCTGATGAATTCTTTTTCTCGAGTAAACAAATTTTCCTAATCTTTCTGTTCAAGCGCCATCTAC” was tested, and the binding signal was 0.884 RPM ratio (pull-down/input). “GATGATTGTTCTCCCAGCTGATGAATTTTGGTGTTCGAGTAAACAAATTTTCCTAATCTTTCTGTTCAAGCGCCATCTAC” was tested, and the binding signal was 1.07 RPM ratio (pull-down/input). For “GATGATTGTTCTCCCAGCTGATGAATTTGAGCATTCGAGTAAACAAATTTTCCTAATCTTTCTGTTCAAGCGCCATCTAC”, the binding signal was 1.11 RPM ratio (pull-down/input). With “GATGATTGTTCTCCCAGCTGATGAATTTAACGCGTCGAGTAAACAAATTTTCCTAATCTTTCTGTTCAAGCGCCATCTAC” the binding signal was 0.987 RPM ratio (pull-down/input). In the case of “GATGATTGTTCTCCCAGCTGATGAATTCGCATCATCGAGTAAACAAATTTTCCTAATCTTTCTGTTCAAGCGCCATCTAC”, the binding signal is reported as 1.43 RPM ratio (pull-down/input). In the case of “GATGATTGTTCTCCCAGCTGATGAATTCTCCGTATCGAGTAAACAAATTTTCCTAATCTTTCTGTTCAAGCGCCATCTAC”, the binding signal is reported as 0.923 RPM ratio (pull-down/input). “GATGATTGTTCTCCCAGCTGATGAATTTATTAGATCGAGTAAACAAATTTTCCTAATCTTTCTGTTCAAGCGCCATCTAC” was tested, and the binding signal was 1.07 RPM ratio (pull-down/input). For “GATGATTGTTCTCCCAGCTGATGAATTTTGGTCATCGAGTAAACAAATTTTCCTAATCTTTCTGTTCAAGCGCCATCTAC”, the binding signal was 0.927 RPM ratio (pull-down/input). With “GATGATTGTTCTCCCAGCTGATGAATTCACTTTATCGAGTAAACAAATTTTCCTAATCTTTCTGTTCAAGCGCCATCTAC” the binding signal was 0.944 RPM ratio (pull-down/input). “GATGATTGTTCTCCCAGCTGATGAATTATAAAGTTCGAGTAAACAAATTTTCCTAATCTTTCTGTTCAAGCGCCATCTAC” was tested, and the binding signal was 1.04 RPM ratio (pull-down/input). “GATGATTGTTCTCCCAGCTGATGAATTAAGATAGTCGAGTAAACAAATTTTCCTAATCTTTCTGTTCAAGCGCCATCTAC” was tested, and the binding signal was 0.919 RPM ratio (pull-down/input). For “GATGATTGTTCTCCCAGCTGATGAATTATGGCAGTCGAGTAAACAAATTTTCCTAATCTTTCTGTTCAAGCGCCATCTAC”, the binding signal was 0.946 RPM ratio (pull-down/input). For “GATGATTGTTCTCCCAGCTGATGAATTCGACCAGTCGAGTAAACAAATTTTCCTAATCTTTCTGTTCAAGCGCCATCTAC”, the binding signal was 0.754 RPM ratio (pull-down/input). “GATGATTGTTCTCCCAGCTGATGAATTCTAACGATCGAGTAAACAAATTTTCCTAATCTTTCTGTTCAAGCGCCATCTAC” was tested, and the binding signal was 0.877 RPM ratio (pull-down/input). For “GATGATTGTTCTCCCAGCTGATGAATTAGGTCAATCGAGTAAACAAATTTTCCTAATCTTTCTGTTCAAGCGCCATCTAC”, the binding signal was 1 RPM ratio (pull-down/input). For “GATGATTGTTCTCCCAGCTGATGAATTACAGCGATCGAGTAAACAAATTTTCCTAATCTTTCTGTTCAAGCGCCATCTAC”, the binding signal was 1.16 RPM ratio (pull-down/input). With “GATGATTGTTCTCCCAGCTGATGAATTAAAAAAGTCGAGTAAACAAATTTTCCTAATCTTTCTGTTCAAGCGCCATCTAC” the binding signal was 0.843 RPM ratio (pull-down/input). For “GATGATTGTTCTCCCAGCTGATGAATTGCGTGATTCGAGTAAACAAATTTTCCTAATCTTTCTGTTCAAGCGCCATCTAC”, the binding signal was 1.21 RPM ratio (pull-down/input). “GATGATTGTTCTCCCAGCTGATGAATTCTTCGTGTCGAGTAAACAAATTTTCCTAATCTTTCTGTTCAAGCGCCATCTAC” was tested, and the binding signal was 0.867 RPM ratio (pull-down/input). “GATGATTGTTCTCCCAGCTGATGAATTCAGGATCTCGAGTAAACAAATTTTCCTAATCTTTCTGTTCAAGCGCCATCTAC” was tested, and the binding signal was 0.795 RPM ratio (pull-down/input). “GATGATTGTTCTCCCAGCTGATGAATTACCAACATCGAGTAAACAAATTTTCCTAATCTTTCTGTTCAAGCGCCATCTAC” was tested, and the binding signal was 1.94 RPM ratio (pull-down/input). “GATGATTGTTCTCCCAGCTGATGAATTTAGCTACTCGAGTAAACAAATTTTCCTAATCTTTCTGTTCAAGCGCCATCTAC” was tested, and the binding signal was 0.924 RPM ratio (pull-down/input). In the case of “GATGATTGTTCTCCCAGCTGATGAATTGTGTGACTCGAGTAAACAAATTTTCCTAATCTTTCTGTTCAAGCGCCATCTAC”, the binding signal is reported as 1.1 RPM ratio (pull-down/input). “GATGATTGTTCTCCCAGCTGATGAATTACCTGTTTCGAGTAAACAAATTTTCCTAATCTTTCTGTTCAAGCGCCATCTAC” was tested, and the binding signal was 1.12 RPM ratio (pull-down/input). With “GATGATTGTTCTCCCAGCTGATGAATTAACGTGTTCGAGTAAACAAATTTTCCTAATCTTTCTGTTCAAGCGCCATCTAC” the binding signal was 1.02 RPM ratio (pull-down/input).
